Measurements taken from patent US20240076343A1 (CEPHALON, published 2024).

Tests used:
[1] = target: T1, recombinant human CD25 extracellular domain, C-terminal poly-histidine tagged (human, UniProt P01589 22-240); assay: BLI (Octet)
T1 construct: also called CD25/IL-2Rα; IL-2Rα
T1 sequence: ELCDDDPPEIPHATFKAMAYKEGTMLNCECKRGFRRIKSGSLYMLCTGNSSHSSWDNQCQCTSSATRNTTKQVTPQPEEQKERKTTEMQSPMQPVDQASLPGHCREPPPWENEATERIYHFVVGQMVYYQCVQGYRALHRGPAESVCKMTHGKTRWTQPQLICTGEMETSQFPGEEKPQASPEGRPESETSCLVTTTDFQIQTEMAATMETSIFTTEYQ

[2] = target: T2, recombinant human CD122 extracellular domain, C-terminal poly-histidine tagged (human, UniProt P14784 27-240); assay: BLI (Octet)
T2 construct: also called CD122/IL-2Rβ; IL-2Rβ
T2 sequence: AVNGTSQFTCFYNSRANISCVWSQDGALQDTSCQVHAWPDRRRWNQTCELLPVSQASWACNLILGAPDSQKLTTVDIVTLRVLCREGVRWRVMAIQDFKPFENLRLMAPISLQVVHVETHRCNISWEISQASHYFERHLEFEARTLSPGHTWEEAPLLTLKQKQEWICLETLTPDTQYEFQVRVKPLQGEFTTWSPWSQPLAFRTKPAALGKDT

Binder	Kd [1] [nM]	koff [1] [s⁻¹]	kon [1] [M⁻¹ s⁻¹]	binding result [2]	Kd [2] [nM]	koff [2] [s⁻¹]	kon [2] [M⁻¹ s⁻¹]
1H3-hIgG1-L6-hIL-2 (H16E) (other, Built as m13) heavy: EVQLVESGGGLVQPGRSLKLSCAVSGFTFSDYAMAWVRQAPKKGLEWVATISYDGSRTYYRDSVKGRFTISRDNAKITLYLQMDSLRSEDTATYYCARHGSGYFDYWGQGVMVTVSS[not shown - about 450 residues with a human IgG1 Fc and changes] light: DTVLTQSPALAVSPGERVTISCRASESVRTGVHWYQQKPGQQPKLLIYGASNLESGVPARFSGSGSGTDFTLTIDPVEADDTATYFCQQSWNDPFTFGSGTKLEIKRTVAAPSVFIFPPSDEQLKSGTASVVCLLNNFYPREAKVQWKVDNALQSGNSQESVTEQDSKDSTYSLSSTLTLSKADYEKHKVYACEVTHQGLSSPVTKSFNRGEC	1.4	0.00022	157000	no binding (tested: 300 nM)			
1H3-hIgG1-L6-hIL-2 (H16Y) (other, Built as m13) heavy: EVQLVESGGGLVQPGRSLKLSCAVSGFTFSDYAMAWVRQAPKKGLEWVATISYDGSRTYYRDSVKGRFTISRDNAKITLYLQMDSLRSEDTATYYCARHGSGYFDYWGQGVMVTVSS[not shown - about 450 residues with a human IgG1 Fc and changes] light: DTVLTQSPALAVSPGERVTISCRASESVRTGVHWYQQKPGQQPKLLIYGASNLESGVPARFSGSGSGTDFTLTIDPVEADDTATYFCQQSWNDPFTFGSGTKLEIKRTVAAPSVFIFPPSDEQLKSGTASVVCLLNNFYPREAKVQWKVDNALQSGNSQESVTEQDSKDSTYSLSSTLTLSKADYEKHKVYACEVTHQGLSSPVTKSFNRGEC	1.46	0.00022	150000		4.36	0.00435	997000
1H3-hIgG1-L6-hIL-2 (I92D) (other, Built as m13) heavy: EVQLVESGGGLVQPGRSLKLSCAVSGFTFSDYAMAWVRQAPKKGLEWVATISYDGSRTYYRDSVKGRFTISRDNAKITLYLQMDSLRSEDTATYYCARHGSGYFDYWGQGVMVTVSS[not shown - about 450 residues with a human IgG1 Fc and changes] light: DTVLTQSPALAVSPGERVTISCRASESVRTGVHWYQQKPGQQPKLLIYGASNLESGVPARFSGSGSGTDFTLTIDPVEADDTATYFCQQSWNDPFTFGSGTKLEIKRTVAAPSVFIFPPSDEQLKSGTASVVCLLNNFYPREAKVQWKVDNALQSGNSQESVTEQDSKDSTYSLSSTLTLSKADYEKHKVYACEVTHQGLSSPVTKSFNRGEC	7.94	0.000393	49500	no binding (tested: 300 nM)			
1H3-hIgG1-L6-hIL-2 (I92E) (other, Built as m13) heavy: EVQLVESGGGLVQPGRSLKLSCAVSGFTFSDYAMAWVRQAPKKGLEWVATISYDGSRTYYRDSVKGRFTISRDNAKITLYLQMDSLRSEDTATYYCARHGSGYFDYWGQGVMVTVSS[not shown - about 450 residues with a human IgG1 Fc and changes] light: DTVLTQSPALAVSPGERVTISCRASESVRTGVHWYQQKPGQQPKLLIYGASNLESGVPARFSGSGSGTDFTLTIDPVEADDTATYFCQQSWNDPFTFGSGTKLEIKRTVAAPSVFIFPPSDEQLKSGTASVVCLLNNFYPREAKVQWKVDNALQSGNSQESVTEQDSKDSTYSLSSTLTLSKADYEKHKVYACEVTHQGLSSPVTKSFNRGEC	2.41	0.000206	85400		1.62	0.00151	933000
1H3-hIgG1-L6-hIL-2 (I92R) (other, Built as m13) heavy: EVQLVESGGGLVQPGRSLKLSCAVSGFTFSDYAMAWVRQAPKKGLEWVATISYDGSRTYYRDSVKGRFTISRDNAKITLYLQMDSLRSEDTATYYCARHGSGYFDYWGQGVMVTVSS[not shown - about 450 residues with a human IgG1 Fc and changes] light: DTVLTQSPALAVSPGERVTISCRASESVRTGVHWYQQKPGQQPKLLIYGASNLESGVPARFSGSGSGTDFTLTIDPVEADDTATYFCQQSWNDPFTFGSGTKLEIKRTVAAPSVFIFPPSDEQLKSGTASVVCLLNNFYPREAKVQWKVDNALQSGNSQESVTEQDSKDSTYSLSSTLTLSKADYEKHKVYACEVTHQGLSSPVTKSFNRGEC	2.54	0.000276	108000	no binding (tested: 300 nM)			
1H3-hIgG1-L6-hIL-2 (K43A) (other, Built as m13) heavy: EVQLVESGGGLVQPGRSLKLSCAVSGFTFSDYAMAWVRQAPKKGLEWVATISYDGSRTYYRDSVKGRFTISRDNAKITLYLQMDSLRSEDTATYYCARHGSGYFDYWGQGVMVTVSS[not shown - about 450 residues with a human IgG1 Fc and changes] light: DTVLTQSPALAVSPGERVTISCRASESVRTGVHWYQQKPGQQPKLLIYGASNLESGVPARFSGSGSGTDFTLTIDPVEADDTATYFCQQSWNDPFTFGSGTKLEIKRTVAAPSVFIFPPSDEQLKSGTASVVCLLNNFYPREAKVQWKVDNALQSGNSQESVTEQDSKDSTYSLSSTLTLSKADYEKHKVYACEVTHQGLSSPVTKSFNRGEC	4.79	0.00124	259000		10.3	0.00294	285000
1H3-hIgG1-L6-hIL-2 (L19A) (other, Built as m13) heavy: EVQLVESGGGLVQPGRSLKLSCAVSGFTFSDYAMAWVRQAPKKGLEWVATISYDGSRTYYRDSVKGRFTISRDNAKITLYLQMDSLRSEDTATYYCARHGSGYFDYWGQGVMVTVSS[not shown - about 450 residues with a human IgG1 Fc and changes] light: DTVLTQSPALAVSPGERVTISCRASESVRTGVHWYQQKPGQQPKLLIYGASNLESGVPARFSGSGSGTDFTLTIDPVEADDTATYFCQQSWNDPFTFGSGTKLEIKRTVAAPSVFIFPPSDEQLKSGTASVVCLLNNFYPREAKVQWKVDNALQSGNSQESVTEQDSKDSTYSLSSTLTLSKADYEKHKVYACEVTHQGLSSPVTKSFNRGEC	1.76	0.000357	203000		10.3	0.00487	472000
1H3-hIgG1-L6-hIL-2 (R38A) (other, Built as m13) heavy: EVQLVESGGGLVQPGRSLKLSCAVSGFTFSDYAMAWVRQAPKKGLEWVATISYDGSRTYYRDSVKGRFTISRDNAKITLYLQMDSLRSEDTATYYCARHGSGYFDYWGQGVMVTVSS[not shown - about 450 residues with a human IgG1 Fc and changes] light: DTVLTQSPALAVSPGERVTISCRASESVRTGVHWYQQKPGQQPKLLIYGASNLESGVPARFSGSGSGTDFTLTIDPVEADDTATYFCQQSWNDPFTFGSGTKLEIKRTVAAPSVFIFPPSDEQLKSGTASVVCLLNNFYPREAKVQWKVDNALQSGNSQESVTEQDSKDSTYSLSSTLTLSKADYEKHKVYACEVTHQGLSSPVTKSFNRGEC	5.55	0.00101	182000		13.8	0.00287	208000
